{"source": "PubChem BioAssay AID1461", "about": "(National Center for Advancing Translational Sciences (NCATS), 2008)", "note": "Several values for one entry are separate records, joined by “and”; a condition that tells them apart may be missing. Equal values may be shown once. Screen size: about 220,000 compounds; about 2,300 (1%) were called active. The inconclusive results got no clear call from the source; some entries with a clear call stand among them for comparison. The call rests on the fitted dose curve; in most records, active means well fitted inhibition curve with a large enough effect; inconclusive means small, poorly fitted or top-dose-only effect, or effect the other way; inactive means no such curve, though single readings can be large or run the other way. Potencies beside an inconclusive call are fits to weak or partial responses and may not hold up. Potency means the concentration at half of the fitted maximal effect; tags describe the fitted curve by direction and shape."}
{"target": "Neuropeptide S receptor (Homo sapiens) (UniProt Q6W5P4)", "sequence (Q6W5P4 whole entry, looked up)": "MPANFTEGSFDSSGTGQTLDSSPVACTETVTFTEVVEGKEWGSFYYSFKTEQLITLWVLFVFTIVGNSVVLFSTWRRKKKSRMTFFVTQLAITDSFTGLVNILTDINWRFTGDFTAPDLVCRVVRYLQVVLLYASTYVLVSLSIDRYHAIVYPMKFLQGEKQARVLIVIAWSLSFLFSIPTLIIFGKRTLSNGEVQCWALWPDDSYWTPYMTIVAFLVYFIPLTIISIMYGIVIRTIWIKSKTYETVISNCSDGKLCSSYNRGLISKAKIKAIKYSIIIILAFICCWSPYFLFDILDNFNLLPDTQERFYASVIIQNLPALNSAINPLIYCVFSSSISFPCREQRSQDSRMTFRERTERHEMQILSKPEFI", "test": "qHTS Assay for Antagonists of the Neuropeptide S Receptor: cAMP Signal Transduction; further: nearly all actives have a fitted effect of over 50% in size", "conditions": "CHO-NPSR cells, cAMP TR-FRET, antagonist mode; series mostly up to 38.3 µM"}
{"smiles": "CCOC(=O)C=C(C(=O)OCC)C(=O)OCC", "Potency": "inconclusive: 25.1 µM [activator, single point]"}
{"smiles": "O=C(c1ccc(NC(=S)Nc2ccc(Cl)c(Cl)c2)cc1)N1CCCC1", "Potency": "inactive"}
{"smiles": "N#C/C(=C\\c1ccc(N2CCOCC2)o1)c1ccccc1", "Potency": "inconclusive: 12.6 µM [inhibitor, partial curve]"}
{"smiles": "CC(C)CCNC(=O)C(C)N(C(=O)Cn1nnc(-c2ccc(F)cc2)n1)C1CCCC1", "note": "(stereo not given)", "Potency": "inconclusive: 10 µM [activator, partial curve]"}
{"smiles": "CCOc1ccc(N(CC(=O)NC2CCCCC2)C(=O)CSc2nnc(COc3ccccc3)o2)cc1", "Potency": "inconclusive: 12.6 µM [inhibitor, partial curve]"}
{"smiles": "CCOC(=O)CN1C(=O)C(Sc2n[nH]c(-c3ccc(C)cc3)n2)CCc2ccccc21", "note": "(stereo not given)", "Potency": "inactive"}
{"smiles": "CCN(CC)C(=S)SSC(=S)N(CC)CC", "Potency": "inconclusive: 31.6 µM [inhibitor, single point] and inconclusive: 7.94 µM [inhibitor, partial curve]"}
{"smiles": "O=S(=O)(Nc1ccc(Cc2ccncc2)cc1)c1ccc(Br)cc1", "Potency": "inconclusive: 12.6 µM [inhibitor, partial curve]"}
{"smiles": "O=C(Cc1cccs1)N/N=C/C=C\\c1ccco1", "Potency": "inactive"}
{"smiles": "CSc1cccc(NC(=S)Nc2cc(C)ccc2C)c1", "Potency": "inconclusive: 12.6 µM [activator, single point]"}
{"smiles": "CCCNC(=O)N1CCN(S(=O)(=O)c2ccc(C)cc2)CC1", "Potency": "inconclusive: 3.98 µM [inhibitor, single point]"}
{"smiles": "COC(=O)c1ccc(NC(=O)CN(c2ccc(C)cc2)S(=O)(=O)c2c(C)n[nH]c2C)cc1", "Potency": "inconclusive: 10 µM [inhibitor, partial curve]"}
{"smiles": "S=c1[nH]ncn2c1cc1oc3ccccc3c12", "Potency": "active: 10 µM"}
{"smiles": "CNC(=S)N1N=C2c3ccccc3CCC2C1c1ccccc1Cl", "note": "(stereo not given)", "Potency": "inconclusive: 10 µM [activator, partial curve]"}
{"smiles": "O=C(Nc1ccc(Cl)cc1)N(C1=NCCC1)c1ccc(OC(F)F)cc1", "Potency": "inconclusive: 0.501 µM [inhibitor, full curve]"}
{"smiles": "COc1ccc(N=CC2=C(O)CC(c3ccccc3)CC2=O)c(OC)c1", "note": "(stereo not given)", "Potency": "inactive"}
{"smiles": "CCOC(=O)Cn1c(CN2CCN(C(c3ccccc3)c3ccccc3)CC2)nc2c1c(=O)n(C)c(=O)n2C", "Potency": "active: 15.8 µM"}
{"smiles": "COc1cc(SC#N)ccc1N=Cc1c(C)[nH]n(-c2ccc(Cl)cc2)c1=O", "Potency": "inconclusive: 5.01 µM [inhibitor, full curve, poor fit]"}
{"smiles": "CC(C)C[C@H](NC(=O)c1[nH]cnc1C(=O)N[C@@H](C)c1ccccc1)C(=O)OC(C)(C)C", "Potency": "inconclusive: 10 µM [activator, partial curve]"}
{"smiles": "COc1ccccc1-n1nnnc1SCc1cc2c(cc1Br)OCO2", "Potency": "inconclusive: 12.6 µM [inhibitor, partial curve]"}
{"smiles": "Cc1ccc(C)c(N2CCN(C(=O)CCNC(=O)Cn3ccc4ccccc4c3=O)CC2)c1", "Potency": "inconclusive: 31.6 µM [inhibitor, single point]"}
{"smiles": "O=[N+]([O-])c1ccc(Cl)c(CN2CCC(O)CC2)c1", "Potency": "inactive"}
{"smiles": "Cc1cc(C)c2c(=O)n(CC(=O)NC3CCCC3)sc2n1", "Potency": "inactive"}
{"smiles": "Cc1cc(/C=C2\\NC(=O)NC2=O)c(C)n1-c1ccc(N2CCOCC2)cc1", "Potency": "inactive"}
{"smiles": "COc1cc(OC)c2c(-c3ccccc3)cc(=O)oc2c1C(CCN1CCCC(C)C1)c1ccc(N(C)C)cc1", "note": "(stereo not given)", "Potency": "inconclusive: 12.6 µM [inhibitor, single point]"}
{"smiles": "CC(=O)OCCCNc1cc(Sc2ccc(Cl)cc2)c2nonc2c1[N+](=O)[O-]", "Potency": "inconclusive: 25.1 µM [inhibitor, single point]"}
{"smiles": "CCC(CC)c1nn2c(N)c(/C=C3\\C=Nc4ccccc43)c(=O)nc2s1", "Potency": "inactive"}
{"smiles": "Cc1ccc(NC(=O)CCC(=O)O)cc1F", "Potency": "inactive"}
{"smiles": "CCOC(=O)c1cnc2ccc(F)cc2c1Nc1ccc2c(c1)OCCO2", "Potency": "inconclusive: 10 µM [inhibitor, partial curve]"}
{"smiles": "Cc1nnc2n(Cc3ccccc3)c(=O)c3c4c(sc3n12)COC(C)(C)C4", "Potency": "inconclusive: 1.26 µM [inhibitor, full curve]"}
{"smiles": "CCCCCn1c(=NC(=O)c2ccco2)c(C(=O)OCC)cc2c(=O)n3ccccc3nc21", "Potency": "inconclusive: 7.94 µM [inhibitor, partial curve]"}
{"smiles": "CC(Nc1ccccc1N1CCCCC1)C(=O)N1CCc2ccccc21", "note": "(stereo not given)", "Potency": "inconclusive: 10 µM [inhibitor, single point]"}
{"smiles": "CCc1cc2c(=O)c(Oc3ccccc3)c(C)oc2cc1O", "Potency": "inconclusive: 12.6 µM [inhibitor, partial curve]"}
{"smiles": "COc1cc(NC(=O)c2cccs2)c(C(=O)OCC(=O)NC(=O)NCc2ccccc2)cc1OC", "Potency": "inconclusive: 25.1 µM [inhibitor, single point]"}
{"smiles": "O=C(NCC1c2ccccc2CCN1C(=O)CN1CCOCC1)C1CCCCC1", "note": "(stereo not given)", "Potency": "inconclusive: 31.6 µM [inhibitor, partial curve, poor fit]"}
{"smiles": "O=C(O)/C=C1\\NC(=O)c2ccccc21", "Potency": "inactive"}
{"smiles": "CCOc1cc(/C=N/NC(=O)Nc2ccccc2)ccc1O", "Potency": "inactive"}
{"smiles": "CC(C)C(=O)N1CCN(c2ccc(NC(=O)c3cccs3)cc2)CC1", "Potency": "inconclusive: 10 µM [inhibitor, partial curve]"}
{"smiles": "Cc1ccc(-n2c([S-])c(C(=O)NC(C)c3ccccc3)[n+]3ccccc23)cc1", "note": "(stereo not given)", "Potency": "inactive"}
{"smiles": "COc1ccc([N+](=O)[O-])cc1NC(=O)CSCc1ccccc1", "Potency": "inconclusive: 12.6 µM [inhibitor, single point]"}
{"smiles": "O=C(Nc1ccccc1N1CCN(C(=O)c2ccccc2)CC1)c1cc2ccccc2o1", "Potency": "active: 3.98 µM"}
{"smiles": "CCOc1ccc(C(CC(=O)O)NC(=O)c2ccco2)cc1", "note": "(stereo not given)", "Potency": "inactive"}
{"smiles": "COC(=O)Nc1ccc(S(=O)(=O)N2CCCC(C(=O)Nc3cccc4c3OCCO4)C2)cc1", "note": "(stereo not given)", "Potency": "inactive"}
{"smiles": "COC(=O)c1sc(NC(=S)NC(=O)c2ccccc2F)nc1C", "Potency": "active: 12.6 µM"}
{"smiles": "CCc1ccc2[nH]c(=O)c(C(c3nnnn3Cc3ccco3)N3CCC(C)CC3)cc2c1", "note": "(stereo not given)", "Potency": "inconclusive: 12.6 µM [inhibitor, single point]"}
